Drawing on PMC10323892, this text covers binding for eleven substances.

By UniProt entry, the sequences of proteins in these tests, tags left out. Where a name states a change or a piece, a line headed by the entry shows the natural chain unless it says otherwise.
UniProt Q8ND76: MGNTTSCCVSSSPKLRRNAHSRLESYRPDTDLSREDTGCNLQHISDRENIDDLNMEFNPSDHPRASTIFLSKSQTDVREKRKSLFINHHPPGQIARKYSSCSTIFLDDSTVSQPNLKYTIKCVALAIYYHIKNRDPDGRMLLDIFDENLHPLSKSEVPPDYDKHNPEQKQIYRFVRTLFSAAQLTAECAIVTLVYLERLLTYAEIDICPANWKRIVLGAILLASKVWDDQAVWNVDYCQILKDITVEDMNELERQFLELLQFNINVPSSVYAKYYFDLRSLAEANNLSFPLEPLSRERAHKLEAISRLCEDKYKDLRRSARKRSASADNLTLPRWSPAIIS
UniProt Q8N7R7: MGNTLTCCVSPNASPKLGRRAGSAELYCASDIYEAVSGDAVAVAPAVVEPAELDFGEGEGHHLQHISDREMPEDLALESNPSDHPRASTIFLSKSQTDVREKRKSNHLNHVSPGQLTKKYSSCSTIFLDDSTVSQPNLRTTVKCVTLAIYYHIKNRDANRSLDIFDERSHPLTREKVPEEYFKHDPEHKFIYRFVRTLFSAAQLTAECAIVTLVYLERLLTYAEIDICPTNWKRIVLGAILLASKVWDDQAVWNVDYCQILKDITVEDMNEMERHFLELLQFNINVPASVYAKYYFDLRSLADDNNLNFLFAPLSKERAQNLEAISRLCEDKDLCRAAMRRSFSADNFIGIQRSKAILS
UniProt P24385: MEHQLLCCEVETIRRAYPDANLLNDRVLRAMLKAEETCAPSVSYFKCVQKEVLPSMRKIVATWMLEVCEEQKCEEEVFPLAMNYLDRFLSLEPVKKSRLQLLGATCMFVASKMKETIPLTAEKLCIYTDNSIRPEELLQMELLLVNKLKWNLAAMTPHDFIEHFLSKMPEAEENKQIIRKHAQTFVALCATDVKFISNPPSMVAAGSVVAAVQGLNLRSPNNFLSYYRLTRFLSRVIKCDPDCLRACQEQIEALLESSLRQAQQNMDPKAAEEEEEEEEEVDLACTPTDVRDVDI
UniProt Q96Q40: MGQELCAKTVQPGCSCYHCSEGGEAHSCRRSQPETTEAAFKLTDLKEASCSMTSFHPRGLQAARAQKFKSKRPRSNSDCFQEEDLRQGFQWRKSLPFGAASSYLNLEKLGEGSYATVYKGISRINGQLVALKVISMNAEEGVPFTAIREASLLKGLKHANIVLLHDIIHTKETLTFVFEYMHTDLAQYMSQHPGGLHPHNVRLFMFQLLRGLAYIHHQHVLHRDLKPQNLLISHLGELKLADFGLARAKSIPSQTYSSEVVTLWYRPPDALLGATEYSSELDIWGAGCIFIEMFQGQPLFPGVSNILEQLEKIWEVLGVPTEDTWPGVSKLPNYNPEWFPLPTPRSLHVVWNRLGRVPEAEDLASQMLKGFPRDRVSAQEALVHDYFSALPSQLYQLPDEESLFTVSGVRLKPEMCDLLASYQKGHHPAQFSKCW
UniProt Q07002: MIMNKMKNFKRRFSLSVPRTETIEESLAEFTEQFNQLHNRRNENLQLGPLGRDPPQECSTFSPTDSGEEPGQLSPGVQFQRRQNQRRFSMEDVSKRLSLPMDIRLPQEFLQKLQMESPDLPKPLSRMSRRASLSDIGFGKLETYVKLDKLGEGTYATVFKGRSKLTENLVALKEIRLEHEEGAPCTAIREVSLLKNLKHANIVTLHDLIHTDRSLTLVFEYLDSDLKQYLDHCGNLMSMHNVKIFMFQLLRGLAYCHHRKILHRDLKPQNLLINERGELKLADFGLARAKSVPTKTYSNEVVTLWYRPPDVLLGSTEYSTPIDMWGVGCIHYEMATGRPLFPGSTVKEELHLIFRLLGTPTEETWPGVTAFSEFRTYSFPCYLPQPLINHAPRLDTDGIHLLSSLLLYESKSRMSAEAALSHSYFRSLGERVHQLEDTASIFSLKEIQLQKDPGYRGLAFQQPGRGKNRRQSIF
UniProt Q00537: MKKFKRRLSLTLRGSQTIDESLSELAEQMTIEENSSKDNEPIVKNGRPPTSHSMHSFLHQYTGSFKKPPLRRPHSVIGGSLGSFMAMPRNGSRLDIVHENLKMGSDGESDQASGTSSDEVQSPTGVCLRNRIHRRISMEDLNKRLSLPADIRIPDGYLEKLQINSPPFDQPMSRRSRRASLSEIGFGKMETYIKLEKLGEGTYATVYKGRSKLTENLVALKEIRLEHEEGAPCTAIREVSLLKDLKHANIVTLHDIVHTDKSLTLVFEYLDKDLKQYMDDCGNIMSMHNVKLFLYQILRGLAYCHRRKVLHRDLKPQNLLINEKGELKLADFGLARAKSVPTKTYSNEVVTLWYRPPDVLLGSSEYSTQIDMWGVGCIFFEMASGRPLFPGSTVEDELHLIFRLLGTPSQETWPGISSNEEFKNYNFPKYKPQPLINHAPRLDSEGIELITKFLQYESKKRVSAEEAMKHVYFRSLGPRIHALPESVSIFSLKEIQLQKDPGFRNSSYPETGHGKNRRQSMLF
UniProt Q00536: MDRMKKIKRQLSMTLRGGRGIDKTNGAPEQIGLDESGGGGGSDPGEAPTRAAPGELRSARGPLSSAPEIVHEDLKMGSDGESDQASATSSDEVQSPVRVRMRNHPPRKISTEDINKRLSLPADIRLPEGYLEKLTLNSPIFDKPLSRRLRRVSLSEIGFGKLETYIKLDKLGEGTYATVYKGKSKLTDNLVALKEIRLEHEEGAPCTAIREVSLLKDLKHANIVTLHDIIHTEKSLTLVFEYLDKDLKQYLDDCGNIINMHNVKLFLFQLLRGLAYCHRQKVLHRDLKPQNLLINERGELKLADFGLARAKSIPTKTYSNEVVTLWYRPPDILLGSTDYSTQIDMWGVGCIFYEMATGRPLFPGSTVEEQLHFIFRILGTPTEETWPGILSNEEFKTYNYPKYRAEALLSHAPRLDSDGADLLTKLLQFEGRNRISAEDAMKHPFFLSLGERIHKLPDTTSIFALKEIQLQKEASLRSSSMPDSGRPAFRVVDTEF
UniProt O94921: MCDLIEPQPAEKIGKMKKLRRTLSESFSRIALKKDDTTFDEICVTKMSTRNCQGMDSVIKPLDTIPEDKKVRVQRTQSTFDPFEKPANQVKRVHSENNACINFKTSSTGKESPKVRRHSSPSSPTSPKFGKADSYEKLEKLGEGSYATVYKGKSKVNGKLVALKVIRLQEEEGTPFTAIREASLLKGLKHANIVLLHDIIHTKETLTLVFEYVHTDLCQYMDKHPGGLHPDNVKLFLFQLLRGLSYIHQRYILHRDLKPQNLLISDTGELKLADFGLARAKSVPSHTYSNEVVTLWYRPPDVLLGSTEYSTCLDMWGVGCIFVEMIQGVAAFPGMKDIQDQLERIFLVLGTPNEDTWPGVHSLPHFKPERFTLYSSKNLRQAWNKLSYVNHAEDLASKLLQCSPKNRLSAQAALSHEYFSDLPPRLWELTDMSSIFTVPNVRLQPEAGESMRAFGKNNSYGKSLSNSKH
UniProt Q00534: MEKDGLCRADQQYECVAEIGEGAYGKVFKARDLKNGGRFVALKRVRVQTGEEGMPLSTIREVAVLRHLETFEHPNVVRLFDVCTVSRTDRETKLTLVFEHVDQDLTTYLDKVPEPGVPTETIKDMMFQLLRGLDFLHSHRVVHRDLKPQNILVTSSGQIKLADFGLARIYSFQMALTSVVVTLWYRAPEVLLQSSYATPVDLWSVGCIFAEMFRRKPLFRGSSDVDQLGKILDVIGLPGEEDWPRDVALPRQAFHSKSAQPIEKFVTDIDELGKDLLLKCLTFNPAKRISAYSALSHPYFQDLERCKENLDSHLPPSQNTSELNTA
UniProt F1MA87: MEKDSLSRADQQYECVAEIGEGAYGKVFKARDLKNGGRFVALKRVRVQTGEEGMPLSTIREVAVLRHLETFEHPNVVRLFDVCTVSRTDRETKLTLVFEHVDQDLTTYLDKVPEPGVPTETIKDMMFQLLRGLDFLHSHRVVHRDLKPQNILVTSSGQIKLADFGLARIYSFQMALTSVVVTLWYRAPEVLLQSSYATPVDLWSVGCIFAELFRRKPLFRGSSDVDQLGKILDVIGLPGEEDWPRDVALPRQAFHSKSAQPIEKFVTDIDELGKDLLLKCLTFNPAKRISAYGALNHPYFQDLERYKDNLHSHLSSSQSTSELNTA

No constants are given. Whether binding was seen depends on the method and setting. For some of these results: In cells and extracts the contact can be indirect. Some binding calls cover weakened binding; strength is not graded here. For some of these results: Tags and fused reporters may be left off the sequences shown.

Assay [1] addresses CCNY, yeast two-hybrid fusion (not stated (cDNA from cell lines)) (UniProt Q8ND76). Kind of assay: two-hybrid; Gal4 system (Matchmaker Gold); by the legend cyclins as Gal4 DNA-BD baits and CDKs as Gal4 AD preys; strains Y187 and AH109 mated; growth on -Leu/-Trp/-His/-Ade selection medium, 30 °C; also spot-seeding of serial dilutions.
Assay [2] has as its target T1, cyclin I (CCNI), yeast two-hybrid fusion (human) (UniProt Q14094).
T1 sequence: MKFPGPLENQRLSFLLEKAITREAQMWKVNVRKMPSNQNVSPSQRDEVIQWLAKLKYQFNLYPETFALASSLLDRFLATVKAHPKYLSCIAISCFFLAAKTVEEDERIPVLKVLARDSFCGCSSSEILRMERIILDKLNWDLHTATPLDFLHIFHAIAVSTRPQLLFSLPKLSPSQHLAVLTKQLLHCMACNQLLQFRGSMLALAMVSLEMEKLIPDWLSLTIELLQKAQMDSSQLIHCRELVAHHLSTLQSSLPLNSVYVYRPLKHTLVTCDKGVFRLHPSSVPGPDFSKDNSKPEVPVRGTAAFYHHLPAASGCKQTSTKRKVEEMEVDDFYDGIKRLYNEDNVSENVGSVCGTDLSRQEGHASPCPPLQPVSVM
The assay is described as above.

Assay [3] addresses SPY1, yeast two-hybrid fusion (not stated (cDNA from cell lines)) (UniProt Q5MJ70). Described as above.
Assay [4] deals with N-terminal Flag-tagged SPY1 (not stated (cDNA from cell lines)) (UniProt Q5MJ70). Kind of assay: co-IP; HEK293T cells overexpressing Flag-SPY1; immunoprecipitation with anti-Flag antibody; western blot with an antibody against CDK16. Background: In western blotting, separated proteins are transferred to a membrane and probed.
Assay [5] addresses GST-fused SPY1 (not stated (cDNA from cell lines)) (UniProt Q5MJ70). Kind of assay: pull-down; trapping assay: GST-SPY1 on Glutathion-Sepharose resin incubated with extracts of A549 and U87 cells, 16 h, 4 °C; blot for CDK16; only the target purified.
Assay [6] has as its target CCNYL1, yeast two-hybrid fusion (not stated (cDNA from cell lines)) (UniProt Q8N7R7). Put plainly: two-hybrid; Gal4 system (Matchmaker Gold); by the legend cyclins as Gal4 DNA-BD baits and CDKs as Gal4 AD preys; strains Y187 and AH109 mated; growth on -Leu/-Trp/-His/-Ade selection medium, 30 °C; also spot-seeding of serial dilutions.
In assay [7] the target is T2, CDK-binding-deficient CCNI mutant E103A, yeast two-hybrid fusion (human) (UniProt Q14094).
T2 sequence: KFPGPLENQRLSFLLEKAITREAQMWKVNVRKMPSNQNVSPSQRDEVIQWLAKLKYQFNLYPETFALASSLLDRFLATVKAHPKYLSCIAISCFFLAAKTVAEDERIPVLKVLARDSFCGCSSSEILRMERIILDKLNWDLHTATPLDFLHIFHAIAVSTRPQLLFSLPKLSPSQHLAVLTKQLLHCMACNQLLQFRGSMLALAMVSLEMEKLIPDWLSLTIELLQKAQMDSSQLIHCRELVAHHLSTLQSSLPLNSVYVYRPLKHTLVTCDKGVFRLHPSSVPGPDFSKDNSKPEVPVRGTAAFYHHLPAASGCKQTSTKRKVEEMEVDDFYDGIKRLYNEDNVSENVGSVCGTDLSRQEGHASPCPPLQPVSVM
The assay is described as above.

In assay [8] the target is T3, CCNI construct with a different tag (human) (UniProt Q14094).
T3 sequence: T1 sequence
Kind of assay: co-IP; immunoprecipitation of a CCNI construct with a different tag (Fig. S4B); cells and antibody not given.

Assay [9] addresses T4, CCNI-Flag (human) (UniProt Q14094).
T4 sequence: T1 sequence
Put plainly: co-IP; A549 cells transduced with Flag-tagged cyclins; extract (3–5 mg) with anti-Flag antibody-bound beads, 14–15 h, 4 °C; blot for CDK6.

Assay [10] concerns the target T5, recombinant GST-CCNI (human) (UniProt Q14094).
T5 sequence: T1 sequence
Put plainly: pull-down; trapping assay: GST-cyclins on Glutathion-Sepharose resin incubated with extract of EBV-immortalized lymphocytes, 4 h, 4 °C; blot for CDK6; only the target purified.

Assay [11] has as its target GST-cyclin D (CCND1) (human) (UniProt P24385). Kind of assay: pull-down; trapping assay: GST-cyclins on Glutathion-Sepharose resin incubated with rat whole brain extract, 16 h, 4 °C; only the target purified.
Assay [12] deals with T5, recombinant GST-CCNI (human). The assay is described as above.

For the substance “CDK15, yeast two-hybrid fusion (from UniProt Q96Q40 1-435)”, the binding result in [1] and in assay [2] was “binds” each time.
With “CDK18, yeast two-hybrid fusion (from UniProt Q07002 1-474)”, the binding entry in [1], in [3] and in assay [2] was “binds” in each case.
Consider “CDK17, yeast two-hybrid fusion (from UniProt Q00537 1-523)”, for which the binding result in assay [1], in assay [3] and in assay [2] was “binds” in each case.
In the case of “CDK16, endogenous (from UniProt Q00536 1-496)”, the binding entry in assay [4] and in assay [5] was “binds” in each case.
With “CDK16, yeast two-hybrid fusion (from UniProt Q00536 1-496)”, the binding result in assay [6], in [3] and in assay [2] was “binds” throughout.
“CDK14, yeast two-hybrid fusion (from UniProt O94921 1-469)”: the binding result in assay [1] and in [2] was “binds” each time.
As for “CDK6, yeast two-hybrid fusion (from UniProt Q00534 1-326)”, the values for the binding entry in assay [7] and in assay [2] were “no binding” and “binds”, respectively.
Consider “CDK-binding-deficient CDK6 mutant R60A, yeast two-hybrid fusion (from UniProt Q00534 2-326)”, for which the binding entry in assay [2] is recorded as “no binding”.
On to “CDK6, endogenous (human cells) (from UniProt Q00534 1-326)”, for which the binding entry in [8] is “binds weakly”; in [9], “binds weakly”; in assay [10], “binds”.
For “CDK6, endogenous in rat whole brain extract (from UniProt F1MA87 1-326)”, the binding result in assay [11] and in [12] was “binds” in each case.
Turning to “CDK5, yeast two-hybrid fusion (from UniProt Q00535 1-292)”, the binding entry in assay [3] and in assay [2] was “binds” throughout.
